Test results: PubChem BioAssay AID1963576 (National Center for Advancing Translational Sciences (NCATS), 2024)
Hit rate of the full screen: of about 46,000 compounds, about 60 (0.1%) were called active. Inconclusive results (about 3%) are left out. Calls come from the whole dose curve; as a rule, active = well fitted inhibition curve with a large enough effect; inconclusive = small, poorly fitted or top-dose-only effect; inactive = no such curve, though single readings can be large or run the other way. The list shows a part of the results.

Test: Primary qHTS assay for Inhibitors of ovarian cancer metastasis using an organotypic tumor microenvironment (TME) model.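 For activity change, negative = inhibition: plate controls were DMSO wells for no effect and tomatine positive control wells for full effect.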 Note: nearly all actives have a fitted effect of over 65% in size.
Settings: SKOV3ip1-GFP adhesion/invasion on 3D omental model, fluorescence; series mostly up to 45.8 µM; activity change, negative = inhibition: at the top concentration
Method in brief: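 qHTS, 4-pt dose (0.36-46 umol/L); SKOV3ip1-GFP, 1,200 cells/well, no FBS; primary omental fibroblast/mesothelial co-culture 48 h pre-grown; 2 h RT + 16 h 37 C; PBS wash, 4% PFA; GFP count 488/509 nm.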

Row | Compound | activity change, negative = inhibition | outcome
1 | COc1ccc(C(=O)c2c(N)c(C(=O)Nc3ccccc3Cl)c3ccccn23)cc1 | inactive: 1.68% | 
2 | O=C(COc1ccc2oc3c(c2c1)CCCC3)Nc1cccc(Br)c1 | inactive: -0.597% | 
3 | COc1ccc(NC(=O)CCS(=O)(=O)c2cc3c4c(c2)CCN4C(=O)CC3)c(OC)c1 | inactive: 0.826% | 
4 | CC(=O)c1ccc(Oc2ncnc3c2oc2ccccc23)cc1 |  | inactive
5 | CCCCc1ccc(C(=O)c2c(N)c(C(=O)Nc3cccc(OC)c3)c3ccccn23)cc1 | inactive: 2.02% | 
6 | Cc1nnc(N2C(=O)c3oc4ccccc4c(=O)c3C2c2cccc(OCCC(C)C)c2)s1 (configuration not stated) | inactive: -13.7% | 
7 | COc1cc(C(=O)NCCc2sc(-c3ccc(C)cc3)nc2C)cc(OC)c1OC |  | inactive
8 | CC1CCN(C(=O)Cn2cc(SCC(=O)NCc3ccc(F)cc3)c3ccccc32)CC1 | inactive: -18.1% | 
9 | Cn1c(=O)c2cc(C(=O)NCCCN3CCN(c4ccc(F)cc4)CC3)sc2c2ccccc21 | inactive: -5.15% | 
10 | O=[N+]([O-])c1cc(-c2nc(-c3ccccc3)no2)ccc1NCc1ccco1 | inactive: 6.86% | 
11 | Cc1ccccc1CN1C(=O)c2ccccc2S(=O)c2ccc(C(=O)N3CCOCC3)cc21 (configuration not stated) |  | inactive
12 | Cc1ccc(C(=O)c2oc3ccccc3c2NC(=O)COc2ccccc2C)cc1 |  | inactive
13 | Cc1ccc(-c2noc(-c3ccc(N4CCOCC4)c([N+](=O)[O-])c3)n2)cc1 | inactive: -10.4% | 
14 | COc1ccc(NC(=O)CSc2nc3ccccc3nc2N2CCOCC2)c(OC)c1 | inactive: -0.627% | 
15 | COc1ccc(C(=O)/C=C/c2cn(CC(O)CN3CCCCCC3)c3ccccc23)cc1OC (configuration not stated) | inactive: -15.1% | 
16 | COCCCNC(=O)c1c(NC(=O)Cc2coc3cc(C)ccc23)sc2c1CCCC2 | inactive: 11.2% | 
17 | Cc1ccc(NC2(c3ccccc3)C(=O)c3ccccc3C2=O)cc1F | inactive: -4.65% | 
18 | COc1ccc(Cn2c(SCC(=O)N3CCN(c4ccc(F)cc4)CC3)nc3ccccc32)cc1 | inactive: -5.6% | 
19 | Cc1ccc2scc(N3CCCCC3C)c(=O)c2c1 (configuration not stated) | inactive: 3.47% | 
20 | Cc1ccccc1CNC(=O)CN1C(=O)CCCc2ccccc21 | inactive: 8.04% | 
21 | COc1ccc(CCNC(=O)CCCn2c(=O)c3ccccc3n(CC(=O)Nc3ccccc3C)c2=O)cc1OC | inactive: 27.9% | 
22 | Cc1ccc(C2CC(=O)N(Cc3ccc(F)cc3)c3c2c(C)nn3-c2nc(C)cc(C)n2)cc1 (configuration not stated) | inactive: -26.2% | 
23 | Cc1ccsc1CN(C(=O)COc1ccccc1Cl)C1CCS(=O)(=O)C1 (configuration not stated) | inactive: -7.14% | 
24 | COCCNC(=O)Cn1c(-c2cccs2)cc2cc(Cl)ccc21 | inactive: -4.23% | 

Row | Compound | activity change, negative = inhibition | outcome
25 | CCc1ccccc1NC(=O)CN(c1ccccc1OC)S(=O)(=O)c1ccc(C)cc1 | inactive: -1.41% | 
26 | CC1CCN(S(=O)(=O)c2ccc3c(c2)N(CC(=O)NCCCOC(C)C)C(=O)CO3)CC1 | inactive: 9.75% | 
27 | Cc1sc(C2C(C#N)=C(N)N(c3ccc(Cl)cc3)C3=C2C(=O)CCC3)cc1CN1CCOCC1 (configuration not stated) | inactive: 1.01% | 
28 | CCC(C(=O)NC1CCCCC1)n1c(SCc2ccccc2F)nc2ccncc21 (configuration not stated) | inactive: -8.2% | 
29 | COCCNC(=O)CN1C(=O)COc2ccc(S(=O)(=O)N3CCCCCC3)cc21 | inactive: 6.15% | 
30 | COc1ccc(C2C(=O)N(C3CCCCCC3)CC(=O)N2CCc2ccc(Cl)cc2)cc1OC (configuration not stated) | inactive: -3.77% | 
31 | CCC(C)NC(=O)CCCn1c(=O)c2cccn2c2ccccc21 (configuration not stated) |  | inactive
32 | CCOC(=O)CSc1nc2sc3c(c2c(=O)n1Cc1ccccc1)CC(C(C)C)OC3 (configuration not stated) | inactive: 44.4% | 
33 | Cc1nn(C(C)C(=O)NCCc2ccccc2)c(=O)c2c1sc1ccccc12 (configuration not stated) | inactive: 2.96% | 
34 | CCN(Cc1ccccc1)c1nc2c(S(=O)(=O)c3ccccc3)nnn2c2ccc(Cl)cc12 |  | inactive
35 | CCc1ccc(NC(=O)CSc2ccc(-c3sc(-c4ccccc4)nc3C)nn2)cc1 | inactive: -7.42% | 
36 | COc1ccc(NC(=O)Cn2c(=O)n(CCCC(=O)NCc3ccccc3Cl)c(=O)c3ccccc32)c(OC)c1 | inactive: 18.7% | 
37 | Cc1cc(C)c(NC(=O)CSc2nc3ccccc3c3nc(-c4ccccc4)nn23)c(C)c1 | inactive: -6.25% | 
38 | CCc1ccc(C(c2ccccc2)c2c(C)[nH]c3ccccc23)s1 (configuration not stated) | inactive: -3.06% | 
39 | Cc1cccc(CNC(=O)c2ccc3c(c2)N(C)CCS3)c1 | inactive: -0.286% | 
40 | CCOc1ccc(C2C(=O)N(C3CCCCC3)CC(=O)N2Cc2ccc(F)cc2)cc1OC (configuration not stated) | inactive: -8.16% | 
41 | COc1ccc(N2CCN(c3ncccc3-c3nc(-c4ccccc4C)no3)CC2)cc1 | inactive: -2.66% | 
42 | COc1ccc(CNCc2c(C(=O)O)c(C)n(Cc3ccccc3C)c2C)cc1OC | inactive: 3.53% | 
43 | CCOC(=O)c1sc2ccccc2c1S(=O)(=O)Nc1cc(OC)ccc1OC | inactive: -2.16% | 
44 | COc1ccc(Cn2c(SCc3ccc(C(=O)NC4CCCCC4)cc3)nc3ccncc32)cc1 | inactive: 3% | 
45 | CCc1cccc(C)c1Nc1c(-c2ccc(F)cc2)nc2sccn12 | inactive: 18.1% | 
46 | O=C1c2[nH]nc(-c3ccccc3O)c2C(c2cccc(OCc3ccccc3)c2)N1CCCO (configuration not stated) | inactive: 2.01% | 
47 | Fc1ccc(N2CCN(Cc3nnc(-c4ccccc4Cl)o3)CC2)cc1 | inactive: -17% | 
